Test results as given in the supplement of paper PMC3334620.
The full ranking holds about 33,000 sequences; the median of “E-score (-0.5 to 0.5)” is about -0.043, and the highest 2% start at about 0.37. The list shows a part of the results.

target: T1, Upc2 (UniProt Q12151); assay: PBM E-score (8-mer binding enrichment) (E-score (-0.5 to 0.5)); higher = stronger / more preferred TF binding; most listed sequences are background and not binding sites; settings: protein concentration: 200 nM; construct: GST-full length
T1 sequence: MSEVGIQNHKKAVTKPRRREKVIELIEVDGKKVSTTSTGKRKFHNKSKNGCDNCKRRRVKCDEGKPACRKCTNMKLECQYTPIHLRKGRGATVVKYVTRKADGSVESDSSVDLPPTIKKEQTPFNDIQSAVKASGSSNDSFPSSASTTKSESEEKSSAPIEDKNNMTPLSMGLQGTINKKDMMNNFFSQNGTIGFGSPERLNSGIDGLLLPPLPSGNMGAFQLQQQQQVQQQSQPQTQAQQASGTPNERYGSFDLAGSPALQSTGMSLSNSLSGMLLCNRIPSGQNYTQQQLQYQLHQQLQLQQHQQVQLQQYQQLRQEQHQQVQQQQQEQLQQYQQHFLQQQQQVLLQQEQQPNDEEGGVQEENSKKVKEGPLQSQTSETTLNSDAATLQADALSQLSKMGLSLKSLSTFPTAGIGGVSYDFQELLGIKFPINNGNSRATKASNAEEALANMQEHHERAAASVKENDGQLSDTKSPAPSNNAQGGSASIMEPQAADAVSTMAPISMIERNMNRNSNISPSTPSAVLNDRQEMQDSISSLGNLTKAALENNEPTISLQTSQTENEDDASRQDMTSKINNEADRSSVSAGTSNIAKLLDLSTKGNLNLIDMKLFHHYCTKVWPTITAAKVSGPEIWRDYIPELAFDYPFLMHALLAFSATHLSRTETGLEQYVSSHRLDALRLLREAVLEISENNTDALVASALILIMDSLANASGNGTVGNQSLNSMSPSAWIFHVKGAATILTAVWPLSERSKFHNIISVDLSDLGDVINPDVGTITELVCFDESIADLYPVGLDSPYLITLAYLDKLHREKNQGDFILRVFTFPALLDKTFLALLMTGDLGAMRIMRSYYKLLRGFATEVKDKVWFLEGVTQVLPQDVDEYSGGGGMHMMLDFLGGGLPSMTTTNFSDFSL
How it was run: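 Using PURExpress in vitro transcription/translation, GST-tagged yeast transcription factors were made in full-length or DNA-binding-domain form. These were applied at about 100-200 nM to double-stranded universal all-10-mer Agilent arrays, and bound protein was detected with fluorescent anti-GST. Scans were normalised with masliner before the Universal PBM Analysis Suite assigned E-scores to ungapped eight-base words pooled with their reverse complements.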

Sequence	PBM E-score
ATATTTCA	0.0314
CTCCCAAA	-0.0646
AAGATCTG	-0.18
CGCATCAA	-0.0159
AAAATGGT	0.0385
AAACAAAC	0.135
GGCTCATA	0.033
CATTCCGA	0.043
CTGATAGC	-0.0769
CAAATCAG	-0.165
GGGGCCCA	-0.0784
TACGACGA	0.465
ACCCCAAA	0.0409
CCTAAATA	-0.0402
AGCACCTC	-0.144
TTATAGAA	0.0942
CGCCACAG	-0.274
AGGCCCAA	-0.125
CCGAAATA	0.184
CCTGTTTC	-0.186
ATTGAAAG	-0.164
AGCAGTCA	-0.105

Sequence	PBM E-score
TGTAGGAA	-0.0273
ATGTCCTA	0.0227
ACATCCCT	-0.171
AAATACCG	0.128
CACGTCCC	-0.164
AGGTTGAA	0.084
AAGAGCTG	-0.149
TATCGGGA	0.0327
AGTTAGTG	-0.168
AAATAGAT	0.132
TGCCAACA	-0.0697
AAACCGTG	0.00463
ACTTTTGG	-0.134
TATCCATA	0.2
CCTGCAGC	0.0242
CCGTTACA	0.0637
GCCGCATA	0.217
AACTTCTG	-0.0773
CCGCGTAC	0.324
ACCGACGC	0.161
CCAAGGGA	-0.11
CACGGCGA	-0.0525

Sequence	PBM E-score
CCTTCACA	-0.0972
CTGACGGA	-0.216
ACACCAAG	-0.0367
AATCGAGC	0.286
GGTGTTCA	0.00797
AGCAGCAT	-0.0616
CGAGCTGA	0.196
AGGTGACC	-0.281
ACTACTCC	-0.0816
GATGTATA	-0.0388
TCCTGGAA	-0.144
CCCACACC	-0.0498
CTAGCGTA	0.103
AGACTAGC	-0.205
AAGTTGCT	-0.00267
GTACCTAC	0.0442
ACCTGTTA	0.0801
CTCACCGA	-0.0555
ACTTTTGC	0.0781
GGACACTA	-0.118
ACACCCAA	-0.0152
AGTATCGA	0.00655

Sequence	PBM E-score
AGGCATTG	0.0865
CGACAGCG	0.133
TACGAATA	0.415
ACAGGACA	0.0482
CGCACTGA	-0.163
ACCCGCCG	0.0788
GCTAAGGA	-0.205
CCTTTGAC	-0.212
CTCTTGGC	-0.271
CGCGTCAC	-0.0461
ATTTCAGG	-0.0274
GCCATTGA	-0.0727
CCAACTTA	-0.063
GAAGCTGC	-0.142
ATGTTGGC	-0.107
AAGTGACC	-0.0831
CGAAGGCA	0.0006
AGAATGCG	0.122
AGCAGCCG	-0.0553
TCAGCCAA	-0.177
